We go through 50 cell lines from the supplement of paper PMC4967469.

Compound in this assay: CC[C@H](Nc1ncnc2[nH]cnc12)c1nc2cccc(F)c2c(=O)n1-c1ccccc1 [CAL-101]
Briefly: Viability of human cancer cell lines after 72 h of drug (GDSC screen). On the procedure:
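Human cancer cell lines in 384-well plates, medium with 10% serum, drug for 72 h over a 256-fold dose range (nine 2-fold or five 4-fold steps up to the top dose). Adherent lines were fixed and stained with the nucleic acid dye Syto60, suspension lines read with resazurin; signal relative to control wells, capped at 0 and 100%. One two-parameter sigmoid per drug and line, fitted in a mixed model over all curves with the slope shared within a line.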

IC50 is the fitted dose that halves viability relative to control wells, and lower means more sensitive; a limit (>, <) means that the fit lies beyond the doses tested. AUC sums up the same curve from the lowest dose to the 256-fold higher top dose; it is 1 without any effect and falls as sensitivity rises.

With “LU-165 (small cell lung carcinoma, suspension, top dose 20 µM)”, the AUC is 0.97 and the IC50 is greater than 20 µM.
Consider “LXF-289 (lung adenocarcinoma, adherent, top dose 20 µM)”, for which the AUC came out at 0.961 and the half-inhibitory concentration (IC50) was greater than 20 µM.
The matching figures for “LoVo (large intestine, adherent, top dose 20 µM)”: 0.987 and greater than 20 µM.
For “M14 (melanoma, adherent, top dose 20 µM)”, in that order: 0.986 and greater than 20 µM.
For “M059J (glioma, adherent, top dose 20 µM)”, in that order: 0.957 and greater than 20 µM.
“MC116 (B-cell lymphoma, suspension, top dose 20 µM)”: the AUC was found to be 0.98 and the concentration for half-maximal inhibition (IC50) was greater than 20 µM.
For “MC-CAR (haematopoietic neoplasm, suspension, top dose 20 µM)”, in that order: 0.684 and 3.83 µM.
The matching figures for “MC-IXC (neuroblastoma, adherent, top dose 20 µM)”: 0.995 and greater than 20 µM.
For MCF7 (breast, adherent, top dose 20 µM), in that order: 0.986 and greater than 20 µM.
In the case of “MDA-MB-157 (breast, adherent, top dose 20 µM)”, the AUC stood at 0.984 and the IC50 was greater than 20 µM.
Take “MDA-MB-175-VII (breast, adherent, top dose 20 µM)”: the AUC was 0.968 and the IC50 was greater than 20 µM.
Turning to “MDA-MB-231 (breast, adherent, top dose 20 µM)”, the AUC was 0.978 and the IC50 is greater than 20 µM.
As to “MDA-MB-330 (breast, adherent, top dose 20 µM)”, the AUC turned out to be 0.982 and the IC50 is greater than 20 µM.
As to “MDA-MB-361 (breast, adherent, top dose 20 µM)”, the AUC was 0.978 and the IC50 was greater than 20 µM.
As to “MDA-MB-415 (breast, adherent, top dose 20 µM)”, the AUC was found to be 0.929 and the IC50 is greater than 20 µM.
The matching figures for “MDA-MB-436 (breast, adherent, top dose 20 µM)”: 0.974 and greater than 20 µM.
In the case of “MDA-MB-453 (breast, adherent, top dose 20 µM)”, the AUC amounted to 0.959 and the IC50 was greater than 20 µM.
For the cell line “MDA-MB-468 (breast, adherent, top dose 20 µM)”, the AUC stood at 0.86 and the 50% inhibitory concentration (IC50) was determined as 15.8 µM.
The matching figures for “MDST8 (large intestine, adherent, top dose 20 µM)”: 0.941 and greater than 20 µM.
For “ME-1 (acute myeloid leukaemia, suspension, top dose 20 µM)”, in that order: 0.976 and greater than 20 µM.
Take “ME-180 (cervix, adherent, top dose 20 µM)”: the AUC was 0.959 and the IC50 was greater than 20 µM.
For “MEG-01 (chronic myeloid leukaemia, suspension, top dose 20 µM)”, in that order: 0.969 and greater than 20 µM.
For “MEL-JUSO (melanoma, adherent, top dose 20 µM)”, the AUC is 0.959 and the IC50 was greater than 20 µM.
For “MES-SA (uterus, adherent, top dose 20 µM)”, in that order: 0.978 and greater than 20 µM.
As to “MFE-280 (endometrium, adherent, top dose 20 µM)”, the AUC stood at 0.886 and the half-maximal inhibitory concentration (IC50) was greater than 20 µM.
For “MFE-296 (endometrium, adherent, top dose 20 µM)”, in that order: 0.979 and greater than 20 µM.
For “MFE-319 (endometrium, adherent, top dose 20 µM)”, in that order: 0.968 and greater than 20 µM.
For “MFH-ino (soft tissue, adherent, top dose 20 µM)”, in that order: 0.978 and greater than 20 µM.
As to “MFM-223 (breast, adherent, top dose 20 µM)”, the AUC stood at 0.981 and the 50% inhibitory concentration (IC50) is greater than 20 µM.
Turning to “MG-63 (osteosarcoma, adherent, top dose 20 µM)”, the AUC was determined as 0.984 and the IC50 was greater than 20 µM.
For “MHH-ES-1 (Ewing sarcoma, adherent, top dose 20 µM)”, in that order: 0.904 and greater than 20 µM.
As to “MHH-NB-11 (neuroblastoma, adherent, top dose 20 µM)”, the AUC turned out to be 0.95 and the IC50 is greater than 20 µM.
Consider “MHH-PREB-1 (B-cell leukaemia, suspension, top dose 20 µM)”, for which the AUC was 0.978 and the half-maximal inhibitory concentration (IC50) was greater than 20 µM.
The matching figures for “MIA-PaCa-2 (pancreas, adherent, top dose 20 µM)”: 0.975 and greater than 20 µM.
Turning to “MKN1 (stomach, adherent, top dose 20 µM)”, the AUC was determined as 0.967 and the IC50 is greater than 20 µM.
For “MKN28 (stomach, adherent, top dose 20 µM)”, in that order: 0.982 and greater than 20 µM.
Turning to “MKN45 (stomach, adherent, top dose 20 µM)”, the AUC came out at 0.934 and the concentration for half-maximal inhibition (IC50) was greater than 20 µM.
Take “ML-1 (thyroid, adherent, top dose 20 µM)”: the AUC is 0.979 and the half-inhibitory concentration (IC50) is greater than 20 µM.
The matching figures for “ML-2 (acute myeloid leukaemia, suspension, top dose 20 µM)”: 0.737 and 5.41 µM.
For “MLMA (hairy cell leukaemia, semi-adherent, top dose 20 µM)”, in that order: 0.671 and 3.75 µM.
The matching figures for “MMAC-SF (melanoma, adherent, top dose 20 µM)”: 0.97 and greater than 20 µM.
With “MN-60 (B-cell leukaemia, suspension, top dose 20 µM)”, the AUC is 0.915 and the IC50 is greater than 20 µM.
On to “MOG-G-CCM (glioma, adherent, top dose 20 µM)”, for which the AUC was 0.921 and the IC50 is greater than 20 µM.
The matching figures for “MOG-G-UVW (glioma, adherent, top dose 20 µM)”: 0.926 and greater than 20 µM.
As for “MOLM-13 (acute myeloid leukaemia, suspension, top dose 20 µM)”, the AUC turned out to be 0.636 and the IC50 came out at 2.9 µM.
On to “MOLP-8 (myeloma, suspension, top dose 20 µM)”, for which the AUC was found to be 0.731 and the 50% inhibitory concentration (IC50) is 5.53 µM.
“MOLT-13 (T-cell lymphoblastic leukaemia, suspension, top dose 20 µM)”: the AUC amounted to 0.968 and the half-maximal inhibitory concentration (IC50) is greater than 20 µM.
For “MONO-MAC-6 (acute myeloid leukaemia, suspension, top dose 20 µM)”, in that order: 0.778 and 8.56 µM.
With “MPP-89 (mesothelioma, adherent, top dose 20 µM)”, the AUC stood at 0.98 and the concentration for half-maximal inhibition (IC50) was greater than 20 µM.
On to “MRK-nu-1 (breast, suspension, top dose 20 µM)”, for which the AUC was found to be 0.99 and the IC50 is greater than 20 µM.

The term IC50 denotes the point on the concentration scale where inhibition reaches its midpoint.
